# PubChem BioAssay AID686978 (National Center for Advancing Translational Sciences (NCATS), 2013)
# Hit rate of the full screen: of about 420,000 compounds, about 64,000 (15%) were called active. The inconclusive results got no clear call from the source; some entries with a clear call stand among them for comparison. Calls follow the shape of the dose curve; as a rule, active = well fitted inhibition curve with a large enough effect; inconclusive = small, poorly fitted or top-dose-only effect; inactive = flat fitted curve, though single readings scatter. Potencies of inconclusive entries are left out as doubtful fits.
# Experiment: qHTS for Inhibitors of human tyrosyl-DNA phosphodiesterase 1 (TDP1): qHTS in cells in absence of CPT; also: nearly all actives have a fitted effect of over 55% in size
# Conditions: DT40 Tdp1-/- hTDP1 cells, no CPT, ATP luminescence, 48 h; activity change, negative = growth inhibition: at 46.2 µM (top of the series) unless noted
# Method in brief: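 Camptothecin absent (DMSO only). Human TDP1-complemented DT40 knockout cells, 400 cells/well, 37 °C for minimum 48 hr; ATP measured via CellTiter-Glo, 30 min dark incubation, luminescence.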
# % is scaled to controls: 0 for no effect and ±100 for the full control effect; potency is read from the fitted curve at half-maximal effect; tags tell the direction and shape of the fitted curve.
Structure (SMILES),Potency,"activity change, negative = growth inhibition"
O=C(NC(=S)NC1CCCc2ccccc21)c1ccc(F)cc1 (stereo unspecified),"inconclusive [inhibitor, single point]",–
Cc1cccc2c1cnn2C(=O)Nc1ccccc1Cl,–,inconclusive: -33.2% [inhibitor]
Cc1ccc(S(=O)(=O)Nc2ccc(SC(F)F)cc2)c(C)c1,"inconclusive [inhibitor, single point]",–
Cc1cccc(-c2nc3scc(CCNS(=O)(=O)c4ccc5c(c4)OCCO5)n3n2)c1,"inconclusive [inhibitor, single point]",–
CCC(=O)N(Cc1cc(=O)[nH]c2ccccc12)C1CCCCC1,"inconclusive [inhibitor, single point]",–
N#C/C(=N\Nc1ccc(S(=O)(=O)N2CCOCC2)cc1)C(N)=S,"inconclusive [inhibitor, single point]",–
CCOC(=O)CSc1ccc(-c2nc3cc(C)c(C)cc3[nH]2)cn1,"inconclusive [inhibitor, partial curve, poor fit]",–
CC1CCc2cc(F)ccc2N1C(=O)C12CCC(C)(C(=O)O1)C2(C)C (stereo unspecified),"inconclusive [inhibitor, single point]",–
CCOc1ccc(CNC(=O)Cc2ccc(NC(=O)N3CCSc4ncccc43)cc2)cc1,active: 16.4 µM,–
Cc1cccn2c(=O)c(C(=O)NCc3cccc(F)c3)cnc12,"inconclusive [inhibitor, single point]",–
Cc1ccc(Cl)cc1Nc1nn2c(=O)c3ccc(C(=O)NCc4ccc(F)cc4)cc3nc2s1,active: 4.61 µM,–
CCCCC(CCCC)=N/N=C/c1c(O)n(CC)c2cc(C3=NNC(=O)CC3)ccc12,"inconclusive [inhibitor, single point]",–
CN(C)CCN(Cc1ccccc1)c1ccccn1,"inconclusive [inhibitor, single point]",–
NS(=O)(=O)c1ccc(CNC(=O)c2cc(=O)c3ccccc3o2)cc1,"inconclusive [inhibitor, partial curve]",–
CCOC(=O)c1ccc(NC(=O)c2cc(C)nc3ccccc23)cc1,inactive,–
CCN(CC)c1ccc(/C=N/NC(=O)c2cc3ccccc3[nH]2)cc1,"inconclusive [inhibitor, single point]",–
NNC(=O)c1nc(-c2cccc(-n3cccc3)c2)no1,"inconclusive [inhibitor, single point]",–
CC1=C(C(=O)N(C)C)CC(CC(=O)NCCN2CCOCC2)C(=O)N1Cc1ccc(F)cc1 (stereo unspecified),inactive,–
Cc1[nH]nc2c1C(CCc1ccccc1)C(C#N)=C(N)O2 (stereo unspecified),inactive,–
CCN(CC)C(=O)C1=C(C)N(Cc2ccc(OC)cc2)C(=O)C(CC(=O)NC2CC2)C1 (stereo unspecified),inactive,–
Cn1c(=O)c(=O)n(C)c2cc(S(=O)(=O)N3CCOc4ccccc43)ccc21,inactive,–
CCC(=O)c1ccc(OCC(O)CNC(C)c2ccccc2)cc1 (stereo unspecified),"inconclusive [inhibitor, single point]",–
CCN(CC)c1ccc(C=C(c2nnnn2-c2ccc(C)cc2)c2nnnn2-c2ccc(C)cc2)cc1,inactive,–

Structure (SMILES),Potency,"activity change, negative = growth inhibition"
Cc1ccccc1Oc1nc(-c2ccccn2)nc2ccccc12,active: 5.17 µM,–
O=C(CN1CCN(S(=O)(=O)N2CCCCCC2)CC1)Nc1ccc(Br)cc1,"inconclusive [inhibitor, partial curve]",–
Brc1cnc(OCc2ccccc2)nc1OCc1ccccc1,–,inconclusive: -35.1% [inhibitor]
COc1ccc(-c2nc3cc(NC(=O)CSc4ccc(C)cc4)ccc3o2)cc1,"inconclusive [inhibitor, partial curve]",–
COc1ccc(CC(=O)N2N=C(C)CC2(O)C(F)(F)F)cc1 (stereo unspecified),active: 3.26 µM,–
CN(C)C=NC(=O)c1cccn1-c1ncc(C(F)(F)F)cc1Cl,inactive,–
COC(=O)c1ccccc1NC(=S)NC(=O)C1CCCCC1,–,inconclusive: -32.5% [inhibitor]
Cc1ccc(CNC(=O)COC(=O)CCCOc2ccc(Cl)cc2Cl)cc1,inactive,–
CCN(C(=O)Cn1cc(C(F)(F)F)ccc1=O)C1CCS(=O)(=O)C1 (stereo unspecified),inactive,–
CC(C)(C)S(=O)N1Cc2cn(Cc3ccccc3)c(=O)cc2[C@H]1CCO (stereo partly specified),inactive,–
COc1ccc(NC(=O)c2oc3ccccc3c2NC(=O)Cc2coc3c(C)c(C)ccc23)cc1,"inconclusive [inhibitor, single point]",–
COc1ccccc1-c1cc(C(=O)NCc2ccccc2)c2c(-c3ccc(C)cc3)[nH]nc2n1,"inconclusive [inhibitor, single point]",–
Cc1cc(NC(=O)CCC(=O)N(CCC(C)C)C(C(=O)NC2CCCC2)c2ccccc2C)no1 (stereo unspecified),"inconclusive [inhibitor, single point]",–
COc1ccc(C2=NN(C(=O)CSc3nc4ncc(Cl)cc4[nH]3)C(c3ccco3)C2)cc1 (stereo unspecified),"inconclusive [inhibitor, single point]",–
CCOC(=O)c1nc(C)n(-c2ccc(Cl)cc2Cl)n1,inactive,–
Oc1ccc(Cl)cc1CNC1CCCCC1,"inconclusive [inhibitor, single point]",–
O=C(CCNC(=O)c1ccccc1Cl)Nc1ccc(S(=O)(=O)N2CCOCC2)cc1,inactive,–
CCOc1ccc(N=Cc2c(O)n(-c3cccc(C)n3)c(=O)c3ccccc23)cc1,"inconclusive [inhibitor, single point]",–
OC1COC(c2ccccc2)OC1C1OC(c2ccccc2)OCC1O (stereo unspecified),inactive,–
Cc1ccc(S(=O)(=O)c2nc(S(=O)(=O)c3ccccc3)sc2NCCCOC(C)C)cc1,active: 11.6 µM,–
Cn1nc2c3ccccc3n(Cc3ccc(F)cc3)c2nc1=S,"inconclusive [inhibitor, single point]",–
Cc1ccc(S(=O)(=O)Nc2ccccc2C(=O)N2CCCCCC2)cc1,inactive,–
O=C(NCc1ccco1)c1cccc(S(=O)(=O)N2CCCCC2)c1,"inconclusive [inhibitor, full curve]",–
